The text below walks through data of the antibiotic and cytotoxicity screens of Wong et al. (2023).

The other results are listed elsewhere or left out.

One assay concerns HSkMC. In words: cytotoxicity call (relative viability < 0.9). As to conditions: 10 µM.
For a further assay, the system named is HepG2. In words: cytotoxicity call (relative viability < 0.9). As to conditions: 10 µM.
For another assay, the system named is S. aureus RN4220. In words: growth inhibition call (relative growth <= 0.2). Particulars: 50 µM.

With `C[C@H](CO)N1C[C@H](C)[C@H](CN(C)C(=O)c2ccccc2)OCCCC[C@H](C)Oc2ccc(NC(=O)Nc3ccc(C(F)(F)F)cc3)cc2C1=O`, the cytotoxicity call in the assay on HSkMC and in the assay on HepG2 was “inactive” each time. The growth inhibition call with S. aureus RN4220 is “inactive”.
Turning to `C[C@H](CO)N1C[C@H](C)[C@H](CN(C)S(=O)(=O)c2ccc(F)cc2)Oc2cc(C3=CCCC3)ccc2S1(=O)=O`, the cytotoxicity call with HSkMC and in the assay on HepG2 was “inactive” each time. For the same compound, the growth inhibition call in the assay on S. aureus RN4220 was “inactive”.
On to `C[C@H](CO)N1C[C@H](C)[C@@H](CN(C)C(=O)NC2CCCCC2)Oc2ccc(NS(=O)(=O)c3cn(C)cn3)cc2CC1=O`, for which the cytotoxicity call in the assay on HSkMC and with HepG2 was “inactive” in each case. For the same compound, the growth inhibition call in the assay with S. aureus RN4220 was “inactive”.
Consider `C[C@@H]1CCCCO[C@@H](CN(C)Cc2ccc(Cl)c(Cl)c2)[C@@H](C)CN([C@@H](C)CO)C(=O)c2cc(NS(=O)(=O)c3cccs3)ccc2O1`, for which the cytotoxicity call in the assay with HSkMC is “inactive”. Moreover, the cytotoxicity call in the assay with HepG2 was “active”. Besides, the growth inhibition call in the assay with S. aureus RN4220 was “inactive”.
In the case of `CO/N=C(\C(=O)N[C@@H]1C(=O)N2C(C(=O)O)=C(CSC(=O)c3ccco3)CS[C@H]12)c1csc(N)n1`, the cytotoxicity call with HSkMC and with HepG2 was “inactive” throughout. Further, in the assay on S. aureus RN4220, the growth inhibition call is “active”.
As for `Cc1noc(C)c1NC(=O)Nc1ccc2c(c1)C(=O)N([C@@H](C)CO)C[C@@H](C)[C@@H](CN(C)S(=O)(=O)c1cccs1)OCCCC[C@H](C)O2`, the cytotoxicity call in the assay on HSkMC and in the assay with HepG2 was “inactive” each time. In addition, the growth inhibition call in the assay on S. aureus RN4220 was “inactive”.
As to `C[C@H]1CN([C@@H](C)CO)C(=O)c2cc(NC(=O)CCCCCC(=O)Nc3ccccc3N)ccc2O[C@H]1CN(C)C(=O)Nc1ccc(C(F)(F)F)cc1`, in the assay with HSkMC, the cytotoxicity call is “inactive”. Moreover, the cytotoxicity call with HepG2 was “active”. The growth inhibition call in the assay on S. aureus RN4220 was “inactive”.
Take `C[C@H](CO)N1C[C@H](C)[C@@H](CN(C)S(=O)(=O)c2cccs2)OCCCC[C@H](C)Oc2ccc(NS(C)(=O)=O)cc2C1=O`: the cytotoxicity call in the assay with HSkMC and with HepG2 was “inactive” in each case. In the assay with S. aureus RN4220, the growth inhibition call was “inactive”.
With `CC(C)NC(=O)Nc1cccc2c1O[C@H](CN(C)Cc1ccc(C(=O)O)cc1)[C@H](C)CN([C@@H](C)CO)C2=O`, the cytotoxicity call in the assay on HSkMC and with HepG2 was “inactive” throughout. Also, in the assay on S. aureus RN4220, the growth inhibition call was “inactive”.
For `COc1oc(C(=O)NC2CCCCC2)c(-c2ccc(Cl)cc2)c1S(=O)(=O)c1ccccc1NC(C)=O`, the cytotoxicity call in the assay with HSkMC and with HepG2 was “inactive” in each case. Besides, the growth inhibition call in the assay with S. aureus RN4220 is “inactive”.
On to `C/C=C/c1ccc([C@H]2[C@H](CO)N(S(=O)(=O)Cc3ccccc3)C23CN(C(=O)C2CCOCC2)C3)cc1`, for which the cytotoxicity call with HSkMC and with HepG2 was “inactive” each time. Further, the growth inhibition call with S. aureus RN4220 is “inactive”.
Consider `NC1(C(=O)Nc2ccc3nc(-c4ccc(F)cc4)oc3c2)CC1`, for which the cytotoxicity call in the assay with HSkMC and in the assay on HepG2 was “inactive” throughout. For the same compound, the growth inhibition call in the assay on S. aureus RN4220 was “inactive”.
For `O=c1ccn([C@@H]2O[C@H](COP(=O)(O)OP(=O)(O)OP(=O)(O)O)[C@@H](O)[C@H]2O)c(=O)[nH]1`, the cytotoxicity call in the assay with HSkMC and with HepG2 was “inactive” throughout. Moreover, the growth inhibition call in the assay with S. aureus RN4220 was “inactive”.
As to `COc1ccc(S(=O)(=O)N[C@H]2CC[C@H](CC(=O)N3CCC(Cc4ccccc4)CC3)O[C@H]2CO)cc1`, the cytotoxicity call with HSkMC and in the assay on HepG2 was “inactive” each time. For the same compound, the growth inhibition call in the assay on S. aureus RN4220 is “inactive”.
Turning to `C[C@@H]1CCCCO[C@@H](CN(C)C(=O)Nc2cccc3ccccc23)[C@H](C)CN([C@@H](C)CO)C(=O)c2cc(NS(C)(=O)=O)ccc2O1`, the cytotoxicity call in the assay on HSkMC and with HepG2 was “inactive” in each case. Besides, in the assay with S. aureus RN4220, the growth inhibition call was “inactive”.
Take `Cc1ccc(S[C@]2(C(=O)NCC(C)C)CC(=O)N(Cc3ccccc3Cl)[C@@H]2c2ccc(CO)cc2I)cc1`: the cytotoxicity call in the assay with HSkMC and with HepG2 was “inactive” each time. Further, in the assay with S. aureus RN4220, the growth inhibition call was “inactive”.
As for `C=CC[C@@H](CC(=O)N(CCO)Cc1ccccc1)C(=O)N[C@H](COC(=O)[C@@H](CC=C)Cc1ccc(F)cc1)c1ccccc1`, the cytotoxicity call in the assay on HSkMC and in the assay on HepG2 was “inactive” throughout. Besides, the growth inhibition call in the assay with S. aureus RN4220 is “inactive”.
For `O=C(C[C@H]1CC[C@@H]2[C@H](COC[C@@H](O)CN2C(=O)c2cccnc2)O1)NCc1ccc(-c2ccccc2)cc1`, the cytotoxicity call in the assay on HSkMC and in the assay with HepG2 was “inactive” in each case. Besides, the growth inhibition call with S. aureus RN4220 is “inactive”.
With `C#CC1(O)CCC2C3CCC4=CCCCC4C3CCC21C` (stereo unspecified), the cytotoxicity call with HSkMC and with HepG2 was “active” each time. In addition, in the assay with S. aureus RN4220, the growth inhibition call is “inactive”.
`Cc1noc(C)c1S(=O)(=O)Nc1ccc2c(c1)C(=O)N([C@H](C)CO)C[C@@H](C)[C@H](CN(C)S(=O)(=O)c1ccc(Cl)cc1)O2`: the cytotoxicity call in the assay on HSkMC and in the assay with HepG2 was “inactive” each time. In addition, the growth inhibition call in the assay with S. aureus RN4220 was “inactive”.
Consider `CCCCC[C@@H](O)[C@H]1C(=O)O[C@H](C)[C@@H](O)/C=C/C=C/C=C/C=C/C=C(\C)[C@@H](O)C[C@H](O)C[C@H](O)C[C@H](O)C[C@H](O)C[C@H](O)C[C@@H]1O`, for which the cytotoxicity call in the assay on HSkMC and in the assay with HepG2 was “inactive” throughout. For the same compound, in the assay on S. aureus RN4220, the growth inhibition call is “inactive”.
For the compound `CO[C@H]1CN(C)C(=O)c2ccc(NC(=O)C3CC3)cc2OC[C@@H](C)N(C(=O)C2CCOCC2)C[C@H]1C`, the cytotoxicity call in the assay on HSkMC and in the assay on HepG2 was “inactive” in each case. Also, the growth inhibition call in the assay with S. aureus RN4220 was “inactive”.
Regarding `C[C@H]1CN([C@@H](C)CO)C(=O)Cc2cc(NC(=O)C3CCCCC3)ccc2O[C@H]1CN(C)S(C)(=O)=O`, the cytotoxicity call with HSkMC and in the assay with HepG2 was “inactive” each time. Further, in the assay on S. aureus RN4220, the growth inhibition call was “inactive”.
For the compound `Cc1noc(C)c1NC(=O)Nc1ccc2c(c1)C(=O)N([C@@H](C)CO)C[C@H](C)[C@H](CN(C)S(C)(=O)=O)O2`, the cytotoxicity call with HSkMC and with HepG2 was “inactive” each time. In addition, the growth inhibition call in the assay with S. aureus RN4220 is “inactive”.
For `O=C(N[C@H]1CC[C@H](CCNS(=O)(=O)c2ccccc2)O[C@@H]1CO)c1cnccn1`, the cytotoxicity call in the assay on HSkMC and in the assay with HepG2 was “inactive” throughout. For the same compound, the growth inhibition call in the assay on S. aureus RN4220 is “inactive”.
With `CCOC(=O)c1cnn2c(N)c(C#N)cnc12`, the cytotoxicity call in the assay with HSkMC and in the assay with HepG2 was “inactive” each time. In the assay on S. aureus RN4220, the growth inhibition call is “inactive”.
Consider `Cc1noc(C)c1S(=O)(=O)Nc1ccc2c(c1)CC(=O)N([C@@H](C)CO)C[C@H](C)[C@@H](CN(C)S(=O)(=O)c1c(C)noc1C)O2`, for which the cytotoxicity call in the assay on HSkMC (human skeletal muscle cells) and in the assay with HepG2 was “inactive” throughout. In addition, the growth inhibition call in the assay with S. aureus RN4220 is “inactive”.
